Source: the supplement of paper PMC10126150
Values marked as one replicate rest on one cluster of the flow cell; about a third of the high ones do not repeat.

System: ATP
Test: switch fluorescence ratio, 500 uM ATP over buffer (Cy3 cluster intensity, sum of 5 cycles each) (fold (ratio)); higher = stronger signal-on switching upon ATP binding; sequences stand for … in TCGTCGGCAGCGTCAGATGTGTATAAGAGACAGTTTTTTTTTTTTTTTTTTTTTTTTT…TC
Settings: aptamer strand: ATP DNA aptamer (quencher-CACCTGGGGGAGTATTGCGGAGGAAGG + anchor), 100 nM annealed; ATP concentration: 500 uM; one replicate
In short: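 The fluorescence ratio divides summed target-cycle Cy3 intensity by summed buffer-cycle Cy3 intensity for each cluster and is averaged per switch-domain sequence. Cy3-labelled switching-strand clusters on a modified Illumina MiSeq flow-cell were annealed to 100 nM quencher-labelled ATP aptamer, then imaged in selection buffer and again after 15 min with 500 uM ATP at 22 °C. Five such cycles were run, with NaOH stripping and re-annealing between them, and clusters outside 100-1000 RFU were excluded.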
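Also: ATP exposure 15 min at 22 °C before imaging.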

Sequence | switch fluorescence ratio
GGGTCGACGG | 0.969
CCGAGACGGG | 1.09
TATGGCGAGG | 1.05
CGGAACGGCT | 1.01
GCTTCAGAGA | 1.02
ACACTAGCTG | 1.04
TATGTTCACT | 1.01
TTTGAAAGCG | 0.961
ATCATGGTAT | 0.98
ATTGTCATTT | 0.953
TGACAACGGT | 1.02
TGCGGGATTC | 1.03
GAGAAGTACG | 1.05
ACCTGCACTA | 1.37
ACGGAGTCAT | 1.26
GGGGTCGCGC | 1.02
AGGCATAAGA | 1.06
TCAGCGAGGC | 1.36
AAGAAATTAG | 0.966
ATCAGTAGT | 1.03
GGACCGAGT | 1.01
CATGTAAGGT | 0.992
AAGCTGATCG | 1.01
AGGATTGGCA | 0.931
AAAGGTTGGA | 1.01
AAAGCATTGG | 1.04

Sequence | switch fluorescence ratio
AACTGGTAAC | 1.03
TTTAACTGCT | 0.989
TTCATTCCTT | 1.06
TGACGGAGCT | 2.4
AGTGCAGCCA | 0.995
CACGGAGGCA | 1.02
GGGGATGCTA | 0.989
TTTCAGGGTA | 0.999
GCAAAAGTAC | 1.06
TCAGATCGGG | 1.04
TGATCCAAAT | 1.01
ATGCATAATC | 0.998
TATATCAGTA | 1.05
AAGTTTGGCG | 1.18
CTAAAGTTAC | 1.19
GGTTCGACTT | 0.924
TTGACTGTCC | 1.41
ACCTTAGAGG | 1.05
GTTAAGTCGG | 1.03
GAGGCAATTA | 4.53
AGGACGGCTG | 0.967
AAATTCAGTG | 0.975
GATCTAAGTG | 0.981
TATGGCCTGC | 0.942
ACTCAGCGGG | 1.14
GACTTACGG | 1.03

Sequence | switch fluorescence ratio
TGGTATGAA | 0.996
TAATGCGGTC | 1.01
CCGGGGAGCC | 1.05
ATGGCGCACT | 0.964
GCTTTCCCAG | 1.14
GTGTTGGGCG | 1.01
TCTTCAACTC | 0.999
TTGGCTAAAA | 0.999
ACTGCTGAGA | 1.06
TGAAGGTAGA | 1.03
ACAGTACGGT | 1.41
ATGGAGAAGA | 1.02
GGAGGCTAGA | 1
CTCGCAGGAT | 3.89
ATTCGCTTT | 0.989
GTTAAATTTG | 0.979
CCTTTCAATA | 2.86
TGTAGTTCGT | 0.977
AGATCAGTTT | 1.05
TACGAAGAAT | 0.99
CAAATAGCGT | 0.991
GTAGGTGCCT | 1.04
AAAGTTGCTC | 1.05
TCATACTAGT | 1.01
GCTTGTGGTA | 1
GGTTCTCCAG | 1

Sequence | switch fluorescence ratio
ACCGTTAATG | 1.06
CGCTAGGTGA | 1.29
GTCCCATCGG | 0.977
GAGATCAACG | 1.03
TCTACTCCGG | 1.26
CGGAGCGGCC | 2.48
TTTGAGAGG | 1
GCGTGGAGTG | 1.04
CGATCTCTTC | 1.07
TTCCAGGTAT | 1.06
TGTTGGACCC | 0.999
TGCGCAAGGT | 1.11
CGTTCCGGGA | 1.13
GAATCGGTCG | 1.06
CGTAATATTC | 3.08
CTGTGCTTAT | 1.01
GGATATAGGA | 0.969
TGTATGCACT | 1.7
GGACTGG | 0.997
CGTGAACACC | 0.957
ATTGAGCCA | 1.08
GTAGGTGCTT | 1.08
CATGAGTGCG | 0.933
GGGGTTGCCA | 0.937
TCATATGCGT | 0.982
GATCGACATT | 1.07

Sequence | switch fluorescence ratio
GCTGCTTCTG | 0.988
CGCGCCTAAG | 0.992
CGCACGTCCA | 1.1
TACACATTC | 1.03
TTTGTGTGT | 1.01
GGACATGGAG | 0.981
TCTGTAGTAG | 0.987
ACATCATATA | 1.07
AGGCTCCTC | 1.07
GCTGGATGGT | 0.939
CCGGGATCTA | 1.04
TTGTACCGCT | 1.14
TAGGCCAC | 0.982
GACAATGTTG | 1.09
GGGCCGGATA | 1.03
CAATTCTACG | 1.05
TAGGGTTTCC | 1.02
AAGTTTGGTC | 0.921
TTGGCGTCTG | 0.953
ATGAAGCGTT | 0.985
GGTGAAGTTA | 0.961
AGGGGAACCT | 1.24
GGTATGAGGG | 1.02
CGAATTAGCG | 1
TATGGGTAGT | 1
TTGGGGTTG | 0.945

Sequence | switch fluorescence ratio
GGAGTCAGTG | 1.01
ACGTCATAGG | 1.22
GTATAAGGCA | 0.995
TGTTCGGACT | 1
CTATTGTCGG | 1.03
TTGCGTCTTG | 0.978
TCACGCTAAA | 1.12
GAGGGAGATC | 1.04
GCGTTTGCGA | 1.02
TGCGTTATG | 1.03
TATCATAAAC | 1.03
GGGTACCCTG | 0.986
TGGGAATCGG | 0.995
CGACAGACTA | 1.03
CTAGACATT | 0.993
CACGACTCTG | 0.987
CTGATGTTTA | 0.997
TGTCTTAAAC | 1.01
AAAAGTTTAC | 1.06
AGACGCCTAA | 1.04
CGGAATTGCA | 0.991
TACTGCTTAG | 1.01
GAGTGTATGC | 1.03
CAATTCTAAT | 1.02
TGGGCGGTCC | 1.01
CCGCTTAAA | 2.02

Sequence | switch fluorescence ratio
AGATCGGGAG | 0.982
AAGAGGCA | 0.996
ATTCAGCGGC | 1.04
TTCGAAGTAG | 1.05
GCTGTACACT | 0.991
AATGAACTTT | 0.964
TTTTTGCAGA | 1.01
TAATGACTAT | 1
TGCCCTCAC | 1.04
AAACTAATAA | 1.06
AGTAAGGGAT | 0.924
TAGACGTGAC | 1.23
TGTGTGTTA | 1.01
AGGGAACCGG | 1.03
TAGTGAGTGA | 1.01
ATTCGGCAGA | 0.96
CTGGTTAAGC | 0.973
AGCTACTCTT | 1.23
TCGGCTCCGT | 1.03
TTAAACGATC | 0.993
GGGCTTCGAA | 1.03
AATTCGGGTG | 1.04
TTGTTAGTCC | 1.01
GCTTGCCTAT | 0.975
TTCCAACCGG | 1.07
AACTGTGATG | 1

Sequence | switch fluorescence ratio
CAATTGGAGT | 0.992
TCGTGTCAAA | 0.996
GATGCAGGTA | 1.01
GACTACCTGC | 1.02
CTAATTTTGG | 1
GAGCGCCGTG | 1.13
AATAGATGTT | 1.03
CGGTCGGTCT | 0.99
AGACCTTTG | 1.04
TTGGGGCGAG | 1.01
ATCTAGCCGG | 1.02
CATCCTACGA | 1.18
AACGGCTCGG | 0.979
GTGGAAAGTG | 0.992
CCCCCTTACT | 1.58
ACCTACAATG | 1.18
CCGAGATCGG | 0.995
GTAATACCAC | 1.13
CATTCTTCCG | 2.18
